± gives the standard deviation of the averaged measurements. In all, about 33,000 sequences were measured (“E-score (dimensionless, -0.5 to 0.5)”: median about -0.049, highest 2% from about 0.37 on). The list shows a part of the results.
Test system: T1, PmTbr T-box DNA-binding domain (GST fusion)
T1 sequence: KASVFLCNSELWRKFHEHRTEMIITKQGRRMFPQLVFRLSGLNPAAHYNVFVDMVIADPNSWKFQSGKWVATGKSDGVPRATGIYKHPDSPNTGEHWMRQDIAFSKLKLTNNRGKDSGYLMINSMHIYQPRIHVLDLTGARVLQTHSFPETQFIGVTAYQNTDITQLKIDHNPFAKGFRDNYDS
Experiment: PBM E-score of 8-mer (E-score (dimensionless, -0.5 to 0.5)); Tbr is Tbrain of the sea star Patiria miniata (Pm) or the sea urchin Strongylocentrotus purpuratus (Sp); higher = stronger binding preference; most listed sequences are background and not binding sites
Details: the construct has about 5 more residues each side
Experimental: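 Universal protein-binding microarray (Agilent AMADID 016060, 60-bp probes with a 35-bp variable region) incubated with 200 nM GST-fused Patiria miniata Tbr T-box DNA-binding domain (residues 272-466) in PBS pH 7.5. Scored for every ungapped 8-mer (given with its reverse complement) by the Universal PBM Analysis Suite as E-score (modified Wilcoxon-Mann-Whitney enrichment, range -0.5 to 0.5; >0.45 counts as bound) and Z-score of median probe intensity. Two replicate arrays (datasets 1 and 2).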
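Further: 200 nM protein in PBS on universal arrays averaged over duplicate arrays.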

Sequence	PBM E-score of 8-mer
CCGGCAAG	-0.0275 ± 0.11
GTCTATGA	-0.121 ± 0.03
AAATATTG	0.189 ± 0.029
AGTTCATC	-0.0165 ± 0.043
GGCGGGTA	0.0302 ± 0.051
AAGGATGT	-0.108 ± 0.018
CAAAACAA	-0.0449 ± 0.052
GACATTCC	-0.191 ± 0.021
AGGCGCTA	0.4421 ± 0.0025
CCGCCCAC	-0.0943 ± 0.055
CACTCATG	0.0878 ± 0.012
ACGCACAG	-0.11 ± 0.006
CTTGCACC	0.343 ± 0.012
CGAGGATC	-0.00896 ± 0.1
AAGGGCTA	-0.307 ± 0.0073
GGGTGACC	-0.0479 ± 0.082
CCTGGGAG	0.11 ± 0.046
AACGTTAC	-0.102 ± 0.0068
AACTATAC	-0.0393 ± 0.082
GCGATGCA	-0.0782 ± 0.0088
GAAGATCA	-0.146 ± 0.007
ACCGACAT	0.0334 ± 0.031

Sequence	PBM E-score of 8-mer
GTCGCGAA	0.33 ± 0.02
ACCAAACC	0.136 ± 0.045
CGAACAGA	0.0159 ± 0.086
CCAGGCTC	-0.207 ± 0.065
GCCAGGTA	0.0701 ± 0.021
AAGATCAC	0.106 ± 0.077
TATCCGAA	-0.229 ± 0.026
CCGGGTTC	-0.107 ± 0.0024
GAGAGCCA	-0.172 ± 0.048
CGCGCTTA	0.237 ± 0.044
CATTTACA	0.176 ± 0.0018
CTAGTTTA	-0.0628 ± 0.029
AGGACGAG	-0.106 ± 0.051
ACTCATAT	-0.0236 ± 0.097
AAAGTGGA	-0.118 ± 0.1
GAGAGGCC	-0.144 ± 0.022
AATTGTGT	0.157 ± 0.039
GGTTGATA	0.00831 ± 0.004
ACTTGACG	0.235 ± 0.021
CTTTGCGA	0.0629 ± 0.022
AAGGCCTA	-0.161 ± 0.014
ACCCTCTG	0.0892 ± 0.023

Sequence	PBM E-score of 8-mer
CGTGTTAG	0.354 ± 0.01
GAAAGGTC	-0.0952 ± 0.11
GCATGTTA	-0.0286 ± 0.048
ACGACGTA	-0.109 ± 0.034
ATACGGTG	-0.0337 ± 0.0096
AACTACCT	-0.139 ± 0.063
GCGCAACA	0.13 ± 0.11
CCGGTAAC	0.12 ± 0.022
ATCAACAA	0.157 ± 0.079
ACGATGCC	-0.1362 ± 0.00064
CTAAAGCC	-0.136 ± 0.065
ATAAGTTG	-0.0956 ± 0.053
AGGAAGTG	0.253 ± 0.07
GTACGTGA	0.203 ± 0.028
ATGAAATG	-0.258 ± 0.021
GGCTGAAC	-0.299 ± 0.02
GCGTCTTA	-0.1318 ± 0.001
CCGACACC	0.448 ± 0.018
CCCATTTC	-0.0847 ± 0.023
GTGCGCTA	0.0331 ± 0.028
AAATAGCT	-0.125 ± 0.053
CTGTTCAA	-0.156 ± 0.043

Sequence	PBM E-score of 8-mer
CACGCTTC	0.328 ± 0.029
CTATCATA	0.00848 ± 0.019
AAACGACT	0.0244 ± 0.058
TATTTTGA	0.0192 ± 0.11
CAGCATCA	-0.203 ± 0.045
GCCATTTA	0.0118 ± 0.017
ATGGGAAT	-0.0796 ± 0.03
GCATGCCA	-0.0745 ± 0.048
CAAAGGCA	-0.14 ± 0.083
TCGTCCAA	-0.214 ± 0.045
ACTATACT	0.0322 ± 0.061
TTCCCCAA	-0.16 ± 0.061
CAAGTTAA	-0.0866 ± 0.0029
CGGTACCC	-0.0439 ± 0.073
CCCAGCAG	-0.119 ± 0.19
AACTGGCA	0.28 ± 0.015
CCGCATGC	-0.18 ± 0.076
AACTCAAT	-0.307 ± 0.008
GCGAATAC	0.241 ± 0.047
AACAATGG	-0.109 ± 0.041

Source: the supplement of paper PMC4166925
